From the supplement of paper PMC4604168 (melanoma cell lines)
The other results are listed elsewhere or left out. Many values rest on one well or one pass, so single values are uncertain.

How the values were obtained:
Experiment in all cases: cell count relative to DMSO control; melanoma cells; higher = more viable cells
Settings in all cases: library dose: low library concentration; 72 h
MZ2-MEL = tested on: MZ2-MEL
MeWo = tested on: MeWo
RPMI7951 = tested on: RPMI7951
RVH-421 = tested on: RVH-421
SkMel28 = tested on: SkMel28
SkMel2 = tested on: SkMel2
SkMel30 = tested on: SkMel30
SkMel5 = tested on: SkMel5
UACC257 = tested on: UACC257
UACC62 = tested on: UACC62
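Note: cell number obtained by counting DAPI-stained nuclei in high-throughput microscope images with image analysis software, screen run in 1,536-well plates.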

SMILES | cell count (MZ2-MEL) | cell count (MeWo) | cell count (RPMI7951) | cell count (RVH-421) | cell count (SkMel28) | cell count (SkMel2) | cell count (SkMel30) | cell count (SkMel5) | cell count (UACC257) | cell count (UACC62)
CNC(=O)c1cc(Oc2ccc(NC(=O)Nc3ccc(Cl)c(C(F)(F)F)c3)cc2)ccn1 [sorafenib] + O=c1cc(-c2cccc3c2Sc2ccccc2S3)oc(N2CCOCC2)c1 [KU55933] (first compound 0.4 µM, partner dose 1 µM) | 98.7% | 106% | 90% | 128% | 99.2% | 97.2% | 96.9% | 87.9% | 97.4% | 95%
C[C@@H](Oc1cc(-c2cnn(C3CCNCC3)c2)cnc1N)c1c(Cl)ccc(F)c1Cl [Crizotinib] + Cc1cc([N+](=O)[O-])ccc1NS(=O)(=O)c1cc(Cl)ccc1Cl [FH535] (first compound 0.2 µM, partner dose 1 µM) | 93% | 94.9% | 94.3% | 73.1% | 89.8% | 94.5% | 92.7% | 94.8% | 109% | 91.7%
CNC(=O)c1cc(Oc2ccc(NC(=O)Nc3ccc(Cl)c(C(F)(F)F)c3)cc2)ccn1 [sorafenib] + O=C(Nc1ccccc1)c1cc([N+](=O)[O-])ccc1Cl [GW9662] (first compound 0.4 µM, partner dose 2 µM) | 100% | 109% | 102% | 104% | 104% | 98.8% | 100% | 97.4% | 85.1% | 78.9%
C[C@@H](Oc1cc(-c2cnn(C3CCNCC3)c2)cnc1N)c1c(Cl)ccc(F)c1Cl [Crizotinib] + CC1(C)NC(=O)N(c2ccc([N+](=O)[O-])c(C(F)(F)F)c2)C1=O [nilutamide] (first compound 0.2 µM, partner dose 1 µM) | 106% | 90.4% | 117% | 96% | 79.1% | 99.7% | 96.8% | 87.9% | 82% | 87%
CS(=O)(=O)CCNCc1ccc(-c2ccc3ncnc(Nc4ccc(OCc5cccc(F)c5)c(Cl)c4)c3c2)o1 [lapatinib] + CC1(C)NC(=O)N(c2ccc([N+](=O)[O-])c(C(F)(F)F)c2)C1=O [nilutamide] (first compound 0.8 µM, partner dose 1 µM) | 108% | 103% | 92.1% | 93.8% | 97.1% | 106% | 126% | 101% | 97.5% | 110%
C[C@@H](Oc1cc(-c2cnn(C3CCNCC3)c2)cnc1N)c1c(Cl)ccc(F)c1Cl [Crizotinib] + Cn1cncc1[C@@](N)(c1ccc(Cl)cc1)c1ccc2c(c1)c(-c1cccc(Cl)c1)cc(=O)n2C [tipifarnib] (first compound 0.2 µM, partner dose 0.01 µM) | 99.5% | 77.4% | 81.8% | 95.9% | 83.3% | 84.7% | 94.7% | 88.4% | 76.2% | 63.5%
CNC(=O)c1cc(Oc2ccc(NC(=O)Nc3ccc(Cl)c(C(F)(F)F)c3)cc2)ccn1 [sorafenib] + COc1ccc(COc2ccc(Cc3cnc(N)nc3N)cc2OC)cc1 [GW2580] (first compound 0.4 µM, partner dose 1 µM) | 82.3% | 108% | 98.7% | 97.2% | 87.8% | 111% | 104% | 80% | 84% | 96.3%
C=CCNC1=C2C[C@@H](C)C[C@H](OC)[C@H](O)[C@@H](C)/C=C(\C)[C@H](OC(N)=O)[C@@H](OC)/C=C\C=C(/C)C(=O)NC(=CC1=O)C2=O [Tanespimycin] + CO[C@@H]1[C@H](N(C)C(=O)c2ccccc2)C[C@H]2O[C@]1(C)n1c3ccccc3c3c4c(c5c6ccccc6n2c5c31)C(=O)NC4 [Midostaurin] (first compound 0.002 µM, partner dose 0.08 µM) | 103% | 76.7% | 83.5% | 67.9% | 102% | 92.8% | 94.1% | 84% | 78.4% | 89.4%
CS(=O)(=O)CCNCc1ccc(-c2ccc3ncnc(Nc4ccc(OCc5cccc(F)c5)c(Cl)c4)c3c2)o1 [lapatinib] + O=C(O)c1ccc(-c2c[nH]c3ncc(-c4ccccc4)cc23)cc1C1CCCC1 [GSK650394] (first compound 0.8 µM, partner dose 0.16 µM) | 91.4% | 94.9% | 128% | 114% | 82.2% | 101% | 100% | 95.8% | 97.2% | 86.2%
CNC(=O)c1cc(Oc2ccc(NC(=O)Nc3ccc(Cl)c(C(F)(F)F)c3)cc2)ccn1 [sorafenib] + N#Cc1c(O)c2c(-c3ccc(-c4ccccc4O)cc3)csc2[nH]c1=O [A769662] (first compound 0.4 µM, partner dose 2 µM) | 97.2% | 93% | 95.1% | 77.2% | 79.3% | 90.4% | 92.5% | 94.7% | 112% | 93.6%
CS(=O)(=O)CCNCc1ccc(-c2ccc3ncnc(Nc4ccc(OCc5cccc(F)c5)c(Cl)c4)c3c2)o1 [lapatinib] + c1cc(-c2cnn3cc(-c4ccc(OCCN5CCCCC5)cc4)cnc23)ccn1 [Dorsomorphin] (first compound 0.8 µM, partner dose 0.4 µM) | 93.6% | 86.9% | 82.3% | 124% | 109% | 102% | 100% | 76% | 91.3% | 93.4%
C=CCNC1=C2C[C@@H](C)C[C@H](OC)[C@H](O)[C@@H](C)/C=C(\C)[C@H](OC(N)=O)[C@@H](OC)/C=C\C=C(/C)C(=O)NC(=CC1=O)C2=O [Tanespimycin] + C[C@@H]1CCN(C(=O)CC#N)C[C@@H]1N(C)c1ncnc2[nH]ccc12 [CP690550] (first compound 0.002 µM, partner dose 1 µM) | 107% | 102% | 104% | 126% | 113% | 97.7% | 82.1% | 93.3% | 110% | 95.3%
CNC(=O)c1cc(Oc2ccc(NC(=O)Nc3ccc(Cl)c(C(F)(F)F)c3)cc2)ccn1 [sorafenib] + CC1(C)NC(=O)N(c2ccc([N+](=O)[O-])c(C(F)(F)F)c2)C1=O [nilutamide] (first compound 0.4 µM, partner dose 1 µM) | 100% | 99.2% | 91% | 98.6% | 88.1% | 102% | 93.3% | 97.6% | 79% | 87.9%
CN1CCN(c2ccc3nc(-c4c(N)c5c(F)cccc5[nH]c4=O)[nH]c3c2)CC1 [Dovitinib] + Cc1cc([N+](=O)[O-])ccc1NS(=O)(=O)c1cc(Cl)ccc1Cl [FH535] (first compound 0.1 µM, partner dose 1 µM) | 83.6% | 91.3% | 120% | 95.4% | 85.6% | 90.2% | 67.3% | 87.6% | 80.8% | 79.5%
CN1CCN(c2ccc3nc(-c4c(N)c5c(F)cccc5[nH]c4=O)[nH]c3c2)CC1 [Dovitinib] + COc1ccc(COc2ccc(Cc3cnc(N)nc3N)cc2OC)cc1 [GW2580] (first compound 0.1 µM, partner dose 1 µM) | 83.6% | 99% | 111% | 109% | 87.5% | 111% | 72.4% | 84.3% | 93.5% | 97.4%
CS(=O)(=O)CCNCc1ccc(-c2ccc3ncnc(Nc4ccc(OCc5cccc(F)c5)c(Cl)c4)c3c2)o1 [lapatinib] + CN(C)S(=O)(=O)c1ccc2c(c1)/C(=C/c1cc3c([nH]1)CCCC3)C(=O)N2 [SU6656] (first compound 0.8 µM, partner dose 0.4 µM) | 115% | 89.6% | 83.3% | 84.2% | 82.7% | 110% | 104% | 90.7% | 76.4% | 96.8%
CN1CCN(c2ccc3nc(-c4c(N)c5c(F)cccc5[nH]c4=O)[nH]c3c2)CC1 [Dovitinib] + COc1cc2c(Oc3ccc4[nH]c(C)cc4c3F)ncnc2cc1OCCCN1CCCC1 [cediranib] (first compound 0.1 µM, partner dose 0.4 µM) | 77.8% | 91.1% | 113% | 95.9% | 85.4% | 102% | 72.4% | 90.3% | 74.7% | 89.4%
CS(=O)(=O)CCNCc1ccc(-c2ccc3ncnc(Nc4ccc(OCc5cccc(F)c5)c(Cl)c4)c3c2)o1 [lapatinib] + COC(=O)c1sccc1S(=O)(=O)Nc1ccc(Nc2ccccc2)cc1OC [GSK0660] (first compound 0.8 µM, partner dose 1 µM) | 94.9% | 84.1% | 99% | 80.9% | 99.7% | 88.2% | 102% | 89.2% | 108% | 103%
CNC(=O)c1cc(Oc2ccc(NC(=O)Nc3ccc(Cl)c(C(F)(F)F)c3)cc2)ccn1 [sorafenib] + C[C@@H]1CCN(C(=O)CC#N)C[C@@H]1N(C)c1ncnc2[nH]ccc12 [CP690550] (first compound 0.4 µM, partner dose 1 µM) | 106% | 88.9% | 94.7% | 107% | 90.8% | 98% | 111% | 90.1% | 101% | 94.8%
C=CCNC1=C2C[C@@H](C)C[C@H](OC)[C@H](O)[C@@H](C)/C=C(\C)[C@H](OC(N)=O)[C@@H](OC)/C=C\C=C(/C)C(=O)NC(=CC1=O)C2=O [Tanespimycin] + COc1cc2c(Oc3ccc4[nH]c(C)cc4c3F)ncnc2cc1OCCCN1CCCC1 [cediranib] (first compound 0.002 µM, partner dose 0.4 µM) | 103% | 88.5% | 116% | 96.5% | 94.4% | 93.1% | 109% | 102% | 122% | 91.3%
